Measured values from patent US20060194762A1, “Composition comprising an epothilone and methods for producing a composition comprising an epothilone” (priority 2004, published 2006).

How the values were obtained:
[1] = tested on: Patients with histologically confirmed advanced solid tumors
[2] = Dissolving crystalline Epothilone* in aqueous hydroxypropyl-β-cyclodextrin solution under stirring; assay type: physicochemical; settings: 200 mg/ml 2-hydroxypropyl-β-cyclodextrin in water
Method: In the first production step hydroxypropyl-β-cyclodextrin was dissolved in water for injection. In the second production step the crystalline Epothilone* was added to said solution under stirring. […] The target concentration of ≧1 mg/mL was only achieved after 20 hours of stirring time. The resulting solution of Epothilone* and hydroxypropyl-β-cyclodextrin, was adjusted to pH 7.4 by adding diluted hydrochloric acid.

## C=CC[C@H]1C(=O)C(C)(C)[C@@H](O)CC(=O)O[C@H](c2ccc3sc(C)nc3c2)C[C@@H]2O[C@]2(C)CCC[C@H](C)[C@@H]1O [Epothilone*, (1S,3S,7S,10R,11S,12S,16R)-7,11-dihydroxy-3-(2-methyl-benzothiazol-5-yl)-10-(prop-2-en-1-yl)-8,8,12,16-tetramethyl-4,17-dioxabicyclo[14.1.0]heptadecane-5,9-dione]
[1]; breast cancer, NSCLC, cholangiocarcinoma, uveal melanoma and head and neck cancer
  anti-tumor activity in patients: anti-tumor activity (including objective responses)
[1]; dose levels up to 29 mg/m^2
  Grade 3-4 non-hematological toxicities other than the DLTs: No Grade 3-4 non-hematological toxicities were reported
  Hematologic toxicities, maximum CTC Grade (infrequent): ≤ 2 CTC Grade
  Most common side effect: peripheral sensory neuropathy, mostly of Grade 1-2
[1]; every 3 weeks, intravenous infusion
  dose that can be administered every 3 weeks without severe toxicity: up to 29 mg/m^2
[2]
  stirring time after which the target concentration of ≧1 mg/mL was achieved: 20 h
[2]; after 5 hours and after 10 hours of stirring
  state of dissolution under stirring: not completely been dissolved
